Experiment in all cases: cell count relative to DMSO control; melanoma cells; higher = more viable cells
What all share (settings): library dose: low library concentration; 72 h

For experiment [1], the system named is WM115.
The subject of experiment [2] is WM1716.
Experiment [3] deals with WM1745.
Experiment [4] relates to WM3526.
Experiment [5] relates to WM3619.
Experiment [6] concerns WM451Lu.

The list shows a part of the results. Single values are uncertain, as repeats are few or missing.
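Note: cell number obtained by counting DAPI-stained nuclei in high-throughput microscope images with image analysis software, screen run in 1,536-well plates.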

Regarding `COc1ccc(C2=N[C@@H](c3ccc(Cl)cc3)[C@@H](c3ccc(Cl)cc3)N2C(=O)N2CCNC(=O)C2)c(OC(C)C)c1` [Nutlin-3] + C=CCNC1=C2C[C@@H](C)C[C@H](OC)[C@H](O)[C@@H](C)/C=C(\C)[C@H](OC(N)=O)[C@@H](OC)/C=C\C=C(/C)C(=O)NC(=CC1=O)C2=O [Tanespimycin] (first compound 0.1 µM, partner dose 0.002 µM), the cell count in experiment [1] came to 99.2%; in experiment [2] it was 89.1%; in experiment [3], 107%; in experiment [4], 108%; in experiment [5], 85.1%; in experiment [6] it was 103%.
With `Cc1cc(Nc2cc(N3CCN(C)CC3)nc(/C=C/c3ccccc3)n2)n[nH]1` + N#Cc1c(O)c2c(-c3ccc(-c4ccccc4O)cc3)csc2[nH]c1=O [A769662] (first compound 0.04 µM, partner dose 2 µM), the cell count in experiment [1] was determined as 92.2%; in experiment [2] it was 90.7%; in experiment [3], 88.7%; in experiment [4] it was 86.2%; in experiment [5] it was 117%; in experiment [6] it was 97.7%.
Consider `Cc1cn(-c2cc(NC(=O)c3ccc(C)c(Nc4nccc(-c5cccnc5)n4)c3)cc(C(F)(F)F)c2)cn1` [nilotinib] + COc1cc(Nc2ncc(F)c(Nc3ccc4c(n3)NC(=O)C(C)(C)O4)n2)cc(OC)c1OC [Tamatinib] (first compound 0.2 µM, partner dose 0.4 µM), for which the cell count was 94.4% in experiment [1]; 92.9% in experiment [2]; 69.4% in experiment [3]; 93% in experiment [4]; 119% in experiment [5]; 97.4% in experiment [6].
Consider `CC(C)C[C@H](NC(=O)[C@H](Cc1ccccc1)NC(=O)c1cnccn1)B(O)O` [Bortezomib] + Nc1ncn([C@H]2C[C@H](O)[C@@H](CO)O2)c(=O)n1 [decitabine] (first compound 0.001 µM, partner dose 0.1 µM), for which the cell count in experiment [1] worked out at 88.3%; in experiment [2], 18.4%; in experiment [3], 47.7%; in experiment [4], 91.7%; in experiment [5], 14.1%; in experiment [6], 88.7%.

For the origin of these results see the supplement of paper PMC4604168 (melanoma cell lines).
